± gives the standard deviation of the averaged measurements. The list shows a part of the results.
tested on: PfAP2-I AP2 domain 3 (GST-tagged); experiment: gcPBM binding intensity (ln(normalized median fluorescence intensity)); higher = stronger DNA binding
In short: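 In this array assay, P. falciparum DNA-binding domains with a GST tag, expressed in E. coli, were applied for 1 h to primer-extended double-stranded 36-bp intergenic genomic probes and negative controls on an Agilent 4 × 180k array. Bound protein was visualised with Alexa488 anti-GST antibody at 488 nm. Binding intensity is the highest Masliner-normalised natural-log median intensity across replicate spots of either probe orientation.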

Sequence | gcPBM binding intensity (ln)
TTATTGCATTGTTTTTATAAAAAAAAAAAAAAAATT [XGTACX_negctrl_site104] | 7.85 ± 0.17
TAATTATGCAGACACACACACACACCCAACTAAAAA [CACACA_site2569] | 8.38 ± 0.2
TATTTATTGTGATACTTATATTACTTAATGATTAAA [CACACA_negctrl_site676] | 7.42 ± 0.42
CTATTTCATGGACACACACACACAAACAAACATATA [CACACA_site4696] | 8.29 ± 0.2
ATATATTATATAAAGTGTACAAAAAAAATATATAAA [XGTACX_site8065] | 8.12 ± 0.6
ATTGTCTTCTCATATACACACTTTTATGACTATCTT [CACACA_site5696] | 8.03 ± 0.66
TGTGTAATTATATATAAGGAGAAAGAATTCATTTTT [CACACA_negctrl_site670] | 7.57 ± 0.65
ACAAAAAATAATCAAAATGTATATATATAATATAAT [XGTACX_negctrl_site593] | 7.77 ± 0.42
TATTGAAGTTATAAAGTGCAGATAAATATGAGTTAT [GTGCAC_site9945] | 9.34 ± 0.24
AAATGCCATATAATTTTTCTTAAACATAATTGTATA [CACACA_negctrl_site1665] | 7.42 ± 0.71
GATTATACAAAATATACACACGTGTAGACAAATATT [CACACA_site4785] | 7.86 ± 0.76
ATAATATTATTATAATGTACATATTTCGATATAAAT [XGTACX_site8808] | 7.81 ± 0.45
ATATTTAATGTTAATTGTACATATTATATATATATA [XGTACX_site6095] | 9.22 ± 0.15
AAAAAAATATATATTACACACATATATACCTATATA [CACACA_site5688] | 7.71 ± 0.57
ATATATATTAATAGGTGTACATATAAAGTGTTATGT [XGTACX_site5464] | 8.21 ± 0.43
AAAAAAAAATTTTTAAAATTTAGAAAATTTAAAAAA [GTGCAC_negctrl_site649] | 7.17 ± 0.31
TAATAATGCAACCTCTGTACACAACATTATATCCAT [XGTACX_site7596] | 9.68 ± 0.32
TATATATAAGCGTGTACACATTCTGAGTGTTGTATA [CACACA_site4502] | 8.09 ± 0.45
AATACATTGTCAAATTGTACAAATTATAGAACTATT [XGTACX_site2222] | 7.68 ± 0.52
CCATAAAAAGGATACACACACACACCCACATATATA [CACACA_site903] | 8.02 ± 0.24
TGTTTTTATATATATGCACACAATGTACAAGTATAC [CACACA_site3529] | 9.52 ± 0.028
TATGTGAATATAATCACACACAATACGGAAACCCAC [CACACA_site2725] | 8.36 ± 0.22

Sequence | gcPBM binding intensity (ln)
AAAGTCTCATTAAAATGTACAAAATTTTCAGCTGTA [XGTACX_site6296] | 7.32 ± 0.62
TTATATATAAACATAAAAAGAAATATATTATGTATA [CACACA_negctrl_site667] | 7.3 ± 0.54
TAATTTTTAATTGTAGCATGCAGTATTTTTAAATAT [TGCATGCA_site140] | 7.75 ± 0.65
AAAGGGGCATATATATGTACATATTATATATTTTGA [XGTACX_site2436] | 8.44 ± 0.092
ATTATCCATGCATTTACACACACACCCAAAAAAATT [CACACA_site4101] | 8.82 ± 0.44
TTTTTTTTTTTTTGTGCATGTAGATTTATTGTTATA [TGCATGCA_site582] | 8.51 ± 0.47
TTTAAATATATATTTAGTACTTATTCTTAAAATTTT [XGTACX_site624] | 7.66 ± 0.45
AAAAAAGAATAGCACACACACATATATAAATATAAA [CACACA_site4518] | 8.175 ± 0.078
GTTACATACAGATACACACACATATATATATATATA [CACACA_site4652] | 9.48 ± 0.66
GTAGAGGATTAAGAATGTACACATAAATACATATTT [XGTACX_site8874] | 7.79 ± 0.47
AATTATACATACATATATATATTTATATATATATAT [GTGCAC_negctrl_site462] | 8.8 ± 0.35
AAAAAAAAATATATATAAAATTAAAAAATGTAATAT [GTGCAC_negctrl_site581] | 7.45 ± 0.64
ATTAAAAAAAAAAGTATACACACTTCTTAATGTCAA [CACACA_site1244] | 7.39 ± 0.47
TTATATCCCGTCCTTTATTAAAAAAATTTTTTTTCT [TGCATGCA_negctrl_site582] | 8.09 ± 0.62
ATGGGTTGTTCAAATAGTACATATGTAGCCCACCAT [XGTACX_site3735] | 8.34 ± 0.62
AAATATTATGTGGCAAGTACATAAAGAAAATGCTTA [XGTACX_site3356] | 7.67 ± 0.43
ATAATAAGGTTAAGCACACATATTACAGATATAACT [CACACA_site5791] | 8.41 ± 0.26
AATAATAATAATAATAGTACATATTATGAATATGAT [XGTACX_site5730] | 7.73 ± 0.14
TTAAAAATGATTGAATGTACAGATTAATATAATTTT [XGTACX_site7394] | 7.51 ± 0.58
GATCTACATGAAAGGACACACAAATATATATATATA [CACACA_site84] | 9.32 ± 0.17
ATAAATATGGAGCACACACACATAAACATACCTATA [CACACA_site6336] | 8.39 ± 0.17
TAATTTTTGAAACACACACACATATATATATATATA [CACACA_site94] | 9.31 ± 0.42

Sequence | gcPBM binding intensity (ln)
ATTATTTTTTTATGTTGTACATAATATTTTTTAAAA [XGTACX_site1666] | 7.92 ± 0.3
TTCCAACATTGTTTTTGTACATAATTAACTGTTATT [XGTACX_site5224] | 7.88 ± 0.57
CTTAAAAATAACTGCACACAAAAATAAATACCTTAT [CACACA_site2793] | 9.28 ± 0.3
TAATATTTATAAAATAGTACACAGAAAAAGCATTTT [XGTACX_site8948] | 7.95 ± 0.5
ATATATATGGATGGACGTACGTATGTATGTAATTTC [XGTACX_site4135] | 8.26 ± 0.77
ATATATATTTTATTATGTACATATAAATATTACACA [XGTACX_site4062] | 8 ± 0.35
GAAAAAATATATAAATGTACATATAATAATATCATA [XGTACX_site6788] | 7.61 ± 0.38
TCGTATATGGATTTTGCACACAATTTTAATTTAAAT [CACACA_site4635] | 9.52 ± 0.071
ATGATTTGTCTGAAATGTACATATATATATATATAT [XGTACX_site5247] | 9.21 ± 0.33
AACAAATAAACAAAATTGGAAAATAAAAATATCAAA [CACACA_negctrl_site1125] | 7.46 ± 0.66
TAATAATTTTATAAAGTGCATAAAAATAAAAATTTT | 10.6 ± 0.36
TTTTTTTTTTTTTTAATTAATTACCTTTGAATGTGT [CACACA_negctrl_site393] | 7.84 ± 0.59
TTAAATAGAAATAAGACTAACAATGAACCAAAAAAA [CACACA_negctrl_site991] | 7.89 ± 0.63
TTTTGAAAAAGTTGCACACAAAATTTAAAAAAAAAA [CACACA_site1632] | 8.44 ± 0.38
ATATATATATATATATATATAATTTTTTTTGTTTTT [TGCATGCA_negctrl_site453] | 9.66 ± 0.34
TATATTATTAATTAGGGTACAAAAAAAAAATTTTTT [XGTACX_site7762] | 7.99 ± 0.61
GATATCAAAAAGATGGGTACATATATTTAAGTTCAT [XGTACX_site3822] | 7.71 ± 0.67
TAGGAAAAGAAAAGCACACACATAAATAGATATATA [CACACA_site6382] | 8.09 ± 0.31
TCTTTAATATATAGTGCATGTAAATTTTACAATAAT [TGCATGCA_site242] | 9.58 ± 0.23
TATGGTATATACAACACACACACATATGTATATATA [CACACA_site927] | 7.98 ± 0.45
ATCAAGCACGGACACACACACACACCCAGACCCCCA [CACACA_site4360] | 8.49 ± 0.47
AAGTTAACACAACAGGTGCAAGAAAAGTTTTTAATG | 10.39 ± 0.035

Sequence | gcPBM binding intensity (ln)
AGTTAATGTTTATGTACACACGGTGGGTATATATTT [CACACA_site5785] | 8.12 ± 0.54
TGCAACAAAATAAACACACACACACTAACACAAAAA [CACACA_site7567] | 8.24 ± 0.31
TTTAAAAATAAAAGTACACACATAAACATATTGCAC [CACACA_site6784] | 10.8 ± 0.79
ATATTATATATATGTGCACACAAAAGATATATATAT [CACACA_site2125] | 9.78 ± 0.21
TTTTCATTTGAAAGTCGTACAAGTTCGAAAAAAGGA [XGTACX_site6840] | 7.89 ± 0.53
CTTAAAAAAACCTTAACACACATAAACTATAATTTA [CACACA_site3055] | 7.54 ± 0.28
ATAAGCAATAAAAAAACATGCATATTATTATCAACA [TGCATGCA_site1027] | 7.79 ± 0.61
AAAACATACATATATACACACATATATATATATATA [CACACA_site1852] | 9.31 ± 0.61
CAAACTACAAAATTTCGTACGCATATATTTCAAGTA [XGTACX_site5154] | 7.68 ± 0.39
TATGTTGGTTCTTTTAGTACATAATTACTAAATGTA [XGTACX_site8616] | 7.91 ± 0.38
CTTTTTTATATCTCTACACACATTTATAACAATTTG [CACACA_site1398] | 8.05 ± 0.71
TTTAAACGTTATATAGTGCATGTCATATTTTATTAT | 8.62 ± 0.57
TACGTAATAATATGCACACAAATAAACTTTATAAAT [CACACA_site3501] | 9.08 ± 0.14
CAAAAAAGTAAAACGTGTACATATATACATAAAAAT [XGTACX_site5639] | 8.13 ± 0.47
TTTTTTTAACGGTGTGCACACAATATACAGAAAAAA [CACACA_site1415] | 9.85 ± 0.14
TATATACATTTATATACACACCTATATTTATTTATA [CACACA_site7014] | 7.85 ± 0.49
ATTATATATATTTATGCACACAAAATATATTATATA [CACACA_site9244] | 9.78 ± 0.3
ATGTACCTATTTCATACACACACACCCACAAACAAA [CACACA_site8232] | 8.61 ± 0.13
CAACAATTTCGTCATACACACATTCAGAATCTATAT [CACACA_site7171] | 7.65 ± 0.62
TATATTGAAAATAAAACATGCAATCACTCATACATA [TGCATGCA_site248] | 7.41 ± 0.63
TATACATTTATGTACACACACATATAGGTATATTTA [CACACA_site7408] | 7.8 ± 0.085
AAAATATAATATATTACACACATATATTTTATAAGT [CACACA_site668] | 7.58 ± 0.47

— the supplement of paper PMC11417369
